Data published in PMC12820563, “FoxP3 forms a head-to-head dimer in vivo and stabilizes its multimerization on adjacent microsatellites”.
Some of the results follow.

Target: T1, MBP-FoxP1dN (Mus musculus, UniProt P58462 326-579)
T1 sequence: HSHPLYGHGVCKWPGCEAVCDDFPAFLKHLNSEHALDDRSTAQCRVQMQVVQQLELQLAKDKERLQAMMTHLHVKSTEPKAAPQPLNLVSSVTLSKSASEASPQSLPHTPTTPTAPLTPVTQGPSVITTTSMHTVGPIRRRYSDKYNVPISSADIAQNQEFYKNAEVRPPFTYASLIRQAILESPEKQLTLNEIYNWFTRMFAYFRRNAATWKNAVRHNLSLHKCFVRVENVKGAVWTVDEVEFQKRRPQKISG
Test: PD-seq (MBP pull-down with sequencing); 20 mM Tris-HCl pH 7.5, 100 mM NaCl, 1.5 mM MgCl2, 0.4 uM protein, 0.1 uM dsDNA library, 30 min, room temperature, amylose pull-down; high values mean tight binding
Details: protein: recombinant; tags: His6-MBP; chain copies: 2; dsDNA, one strand shown
Procedure, shortened: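 A fragment of mouse FoxP3 or FoxP1 without its N-terminus, carrying a His6-MBP tag and produced in E. coli, was combined at 0.4 µM with a 0.1 µM degenerate double-stranded DNA library filled in with Klenow. The mixture sat for 30 min at room temperature in Tris pH 7.5 buffer containing NaCl and MgCl2. Protein–DNA complexes were captured on amylose resin, washed three times, and the DNA was freed with proteinase K, barcoded by PCR and sequenced on Illumina. Binding is expressed as reads-per-million enrichment of pull-down over input, with replicates pooled.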

Row | Sequence | binding signal
1 | GATGATTGTTCTCCCAGCTGATGAATTAGTGGAGTCGAGTAAACAAATTTTCCTAATCTTTCTGTTCAAGCGCCATCTAC | 0.894 RPM ratio (pull-down/input)
2 | GATGATTGTTCTCCCAGCTGATGAATTGGTGCAATCGAGTAAACAAATTTTCCTAATCTTTCTGTTCAAGCGCCATCTAC | 1.22 RPM ratio (pull-down/input)
3 | GATGATTGTTCTCCCAGCTGATGAATTACTGCGGTCGAGTAAACAAATTTTCCTAATCTTTCTGTTCAAGCGCCATCTAC | 0.866 RPM ratio (pull-down/input)
4 | GATGATTGTTCTCCCAGCTGATGAATTCATCATGTCGAGTAAACAAATTTTCCTAATCTTTCTGTTCAAGCGCCATCTAC | 0.907 RPM ratio (pull-down/input)
5 | GATGATTGTTCTCCCAGCTGATGAATTATACTCGTCGAGTAAACAAATTTTCCTAATCTTTCTGTTCAAGCGCCATCTAC | 0.984 RPM ratio (pull-down/input)
6 | GATGATTGTTCTCCCAGCTGATGAATTGACGCGGTCGAGTAAACAAATTTTCCTAATCTTTCTGTTCAAGCGCCATCTAC | 1.01 RPM ratio (pull-down/input)
7 | GATGATTGTTCTCCCAGCTGATGAATTGTGTATGTCGAGTAAACAAATTTTCCTAATCTTTCTGTTCAAGCGCCATCTAC | 1.62 RPM ratio (pull-down/input)
8 | GATGATTGTTCTCCCAGCTGATGAATTCTCTGAGTCGAGTAAACAAATTTTCCTAATCTTTCTGTTCAAGCGCCATCTAC | 0.731 RPM ratio (pull-down/input)
9 | GATGATTGTTCTCCCAGCTGATGAATTATAAATATCGAGTAAACAAATTTTCCTAATCTTTCTGTTCAAGCGCCATCTAC | 2.01 RPM ratio (pull-down/input)
10 | GATGATTGTTCTCCCAGCTGATGAATTCGCGGGGTCGAGTAAACAAATTTTCCTAATCTTTCTGTTCAAGCGCCATCTAC | 0.823 RPM ratio (pull-down/input)
11 | GATGATTGTTCTCCCAGCTGATGAATTTACTCGATCGAGTAAACAAATTTTCCTAATCTTTCTGTTCAAGCGCCATCTAC | 1.31 RPM ratio (pull-down/input)
12 | GATGATTGTTCTCCCAGCTGATGAATTGTGCGGATCGAGTAAACAAATTTTCCTAATCTTTCTGTTCAAGCGCCATCTAC | 0.959 RPM ratio (pull-down/input)
13 | GATGATTGTTCTCCCAGCTGATGAATTGCGTTGTTCGAGTAAACAAATTTTCCTAATCTTTCTGTTCAAGCGCCATCTAC | 1.24 RPM ratio (pull-down/input)
14 | GATGATTGTTCTCCCAGCTGATGAATTCTCTACATCGAGTAAACAAATTTTCCTAATCTTTCTGTTCAAGCGCCATCTAC | 0.988 RPM ratio (pull-down/input)
15 | GATGATTGTTCTCCCAGCTGATGAATTTAGTGTATCGAGTAAACAAATTTTCCTAATCTTTCTGTTCAAGCGCCATCTAC | 1.33 RPM ratio (pull-down/input)
16 | GATGATTGTTCTCCCAGCTGATGAATTCAGCAAGTCGAGTAAACAAATTTTCCTAATCTTTCTGTTCAAGCGCCATCTAC | 0.853 RPM ratio (pull-down/input)

Row | Sequence | binding signal
17 | GATGATTGTTCTCCCAGCTGATGAATTCGTAGTTTCGAGTAAACAAATTTTCCTAATCTTTCTGTTCAAGCGCCATCTAC | 0.913 RPM ratio (pull-down/input)
18 | GATGATTGTTCTCCCAGCTGATGAATTAGGTGGATCGAGTAAACAAATTTTCCTAATCTTTCTGTTCAAGCGCCATCTAC | 0.865 RPM ratio (pull-down/input)
19 | GATGATTGTTCTCCCAGCTGATGAATTGACAAATTCGAGTAAACAAATTTTCCTAATCTTTCTGTTCAAGCGCCATCTAC | 1.53 RPM ratio (pull-down/input)
20 | GATGATTGTTCTCCCAGCTGATGAATTCAAATAGTCGAGTAAACAAATTTTCCTAATCTTTCTGTTCAAGCGCCATCTAC | 0.874 RPM ratio (pull-down/input)
21 | GATGATTGTTCTCCCAGCTGATGAATTAAAATTGTCGAGTAAACAAATTTTCCTAATCTTTCTGTTCAAGCGCCATCTAC | 0.999 RPM ratio (pull-down/input)
22 | GATGATTGTTCTCCCAGCTGATGAATTTGGTACCTCGAGTAAACAAATTTTCCTAATCTTTCTGTTCAAGCGCCATCTAC | 0.878 RPM ratio (pull-down/input)
23 | GATGATTGTTCTCCCAGCTGATGAATTGACCGTGTCGAGTAAACAAATTTTCCTAATCTTTCTGTTCAAGCGCCATCTAC | 0.91 RPM ratio (pull-down/input)
24 | GATGATTGTTCTCCCAGCTGATGAATTAAACGCGTCGAGTAAACAAATTTTCCTAATCTTTCTGTTCAAGCGCCATCTAC | 1.07 RPM ratio (pull-down/input)
25 | GATGATTGTTCTCCCAGCTGATGAATTAGACTCTTCGAGTAAACAAATTTTCCTAATCTTTCTGTTCAAGCGCCATCTAC | 0.952 RPM ratio (pull-down/input)
26 | GATGATTGTTCTCCCAGCTGATGAATTTTGCATGTCGAGTAAACAAATTTTCCTAATCTTTCTGTTCAAGCGCCATCTAC | 1.14 RPM ratio (pull-down/input)
27 | GATGATTGTTCTCCCAGCTGATGAATTTACCTTCTCGAGTAAACAAATTTTCCTAATCTTTCTGTTCAAGCGCCATCTAC | 1.15 RPM ratio (pull-down/input)
28 | GATGATTGTTCTCCCAGCTGATGAATTGCCTCCATCGAGTAAACAAATTTTCCTAATCTTTCTGTTCAAGCGCCATCTAC | 1 RPM ratio (pull-down/input)
29 | GATGATTGTTCTCCCAGCTGATGAATTACCTGCTTCGAGTAAACAAATTTTCCTAATCTTTCTGTTCAAGCGCCATCTAC | 0.939 RPM ratio (pull-down/input)
30 | GATGATTGTTCTCCCAGCTGATGAATTGGGGATCTCGAGTAAACAAATTTTCCTAATCTTTCTGTTCAAGCGCCATCTAC | 0.788 RPM ratio (pull-down/input)
31 | GATGATTGTTCTCCCAGCTGATGAATTCACTAGGTCGAGTAAACAAATTTTCCTAATCTTTCTGTTCAAGCGCCATCTAC | 0.888 RPM ratio (pull-down/input)
